The source gives no read counts; variants with many changes may rest on few reads.

Among the data in the RNAGym collection of RNA variant scans (doi:10.7554/elife.90254) are self-cleavage values, retold here.

B1: LINE1-mini (parent)
chain: GGCAGAGCUCAACACAGCGUGGCAAAGUGGCUGUGGCUAGACUGCC

In this data set the parent is B1. Briefly: self-cleavage, relative activity (ratio to wild type); higher = more cleavage; in vitro, sequencing; the parent is a self-cleaving ribozyme.
GGCAGAGCGCAACACAGCAUGGCACAGUGGAUGUGGCUAGACUGAC [U9G G19A A25C C31A C45A]: the self-cleavage is 0.03.

GGCCGAGCUCAACACAGCGUGGCAAGGUGGCUGUGGCUAGACUGCG [A4C A26G C46G]: the self-cleavage came to 0.11.

With UGCAGGGCUCUACACAGAGUGGCAAAGUGGCUGUGGCUAGACUUCC [G1U A6G A11U C18A G44U], the self-cleavage came out at 0.02.

On to GGCAGAGCUCAACACAGCGUGGCAAAAUGGGUGAGGCUAGACUGCU [G27A C31G U34A C46U], for which the self-cleavage worked out at 0.03.

Take GGCAGAGCUAAACACAGCGUGGCAAAGUGCCUGUGGUUAGACAGCC [C10A G30C C37U U43A]: the self-cleavage was determined as 0.01.

Regarding GGCAGAGCUAAACACAGCUUGGCAAAGUGGCUGUCGCUAGACUGCC [C10A G19U G35C], the self-cleavage was found to be 0.

In the case of GGCAGAACUCAACACAGCAUGGCAAAGUGGCUGUGGCUAGACUGCA [G7A G19A C46A], the self-cleavage was 0.08.

As to GGCAGAGCUGUACACAGCGUGGCAAAGUGGCUGUGGCAAGACUGCC [C10G A11U U38A], the self-cleavage stood at 0.01.

In the case of GGCAUAGCUCAACUCAGCGUGGCAAAGUGACCGUGGUUAGACUGCC [G5U A14U G30A U32C C37U], the self-cleavage is 0.11.

For GGCAGAGAUCAACAUAGAGUGGCAGAUUGUCUGUGGAGAGACUGCC [C8A C15U C18A A25G G27U G30U C37A U38G], the self-cleavage was 0.01.

UGCAGAGCUCAACACAGCGUGGCAAAAUGGCUGCGGCUAGACCGCC [G1U G27A U34C U43C]: the self-cleavage was found to be 0.01.

GGCAGAGCUCAACACAGCGUGGCAAAGUGGCUUUGGCUAGACCGUC [G33U U43C C45U]: the self-cleavage worked out at 0.05.

For the variant GGCAGAGCUCAACACGGCGUGGCAAACUGGGUGUGGCUAGACUGCC [A16G G27C C31G], the self-cleavage is 0.01.

GGCAGAGCUCACUACAGCGUGGCAAAGUUGCCGUGGCUAGACUCCC [A12C C13U G29U U32C G44C]: the self-cleavage turned out to be 0.04.

Turning to GGUAGAGCUCAACACAGCGAGGCAAAGUGGCUGUGGCUAGACUGCU [C3U U20A C46U], the self-cleavage was 0.04.

For GGCAGCGCUCAACACAGCGUGGCAAAGUGGCGGUGGCUAGACUGUC [A6C U32G C45U], the self-cleavage was found to be 0.09.

For the variant GGCAGAGCUCAGCUCAGCGUGGCAAAGUGGCAGUGGCUAGACUGCC [A12G A14U U32A], the self-cleavage worked out at 0.1.

For GGCAGAGAUUAACAUAGCGUGGAACUGUGGCUGUGGCUCGCCGGCC [C8A C10U C15U C23A A25C A26U A39C A41C U43G], the self-cleavage came out at 0.07.

As to GGCUUAGCUCAGCACAGUAUGGCAAAGUGGCUGUGGCUAGACUGCC [A4U G5U A12G C18U G19A], the self-cleavage came to 0.07.

For the variant GUCAGAGCUCAACACAGCGUGGCAAUGUGGCUGGGGCUAGACUGCC [G2U A26U U34G], the self-cleavage stood at 0.06.

For GGCAUAGUUCAUCACAGCCUUGCAAAGUGGCUGUGGCUAGAAUGCC [G5U C8U A12U G19C G21U C42A], the self-cleavage was found to be 0.03.

With GGCAGCGCUCAAAAAAGCGUGGCAAAGUGGCUGUGGCUAGACUGCC [A6C C13A C15A], the self-cleavage is 0.06.

As for GGCAGAGCUCAACUCAGCGUUGCAAAGUGCCUGUGGCUAGACUGCC [A14U G21U G30C], the self-cleavage came out at 0.05.

On to GACAGAGUUCAACUGAGCGUGGCAAAGUGGCUGUCGCUAGACUGCC [G2A C8U A14U C15G G35C], for which the self-cleavage amounted to 0.18.

As for GGCAGAGCUCAACACAGCGAGGCAACGUGGCUGUGUCAAGACUGCA [U20A A26C G36U U38A C46A], the self-cleavage was found to be 0.05.

In the case of GGCAGAGCUAAACACAGCGUGGCAAAGACGCUUUGGCUAGACUGCC [C10A U28A G29C G33U], the self-cleavage stood at 0.02.

As for GGCAGAGCUCAACACAGCGUGGCAAAGCAGCUGUGGUUAGACUGCC [U28C G29A C37U], the self-cleavage was determined as 0.02.

Turning to GUCAGAGCUCAACACCGCGUGGCAAAGUGGCUGCGGCUAGAAGGCU [G2U A16C U34C C42A U43G C46U], the self-cleavage came to 0.01.

For GGAAGAGCUUAACAAGGCGUGGCUAAGUGGCUGUGGCUAGACUGCC [C3A C10U C15A A16G A24U], the self-cleavage amounted to 0.09.

Consider GGCAGAGUUUCACACAGCGUGACAAAGUGACUGUGGCUAGACUGCC [C8U C10U A11C G22A G30A], for which the self-cleavage was determined as 0.01.

Turning to GGCAGCGCUCAACACAGCGUUGCAAAGUGUCUGUGGCUAUACUGCC [A6C G21U G30U G40U], the self-cleavage was 0.

With GGCGGAGCUCAACACAGCGUCGCAAAGUGGCUGAGGCCAGACUGCA [A4G G21C U34A U38C C46A], the self-cleavage stood at 0.12.

In the case of GGCAGAGCUCAACACAGCGUGGCAAAGUGGCUGUCUCUAGUCUGCC [G35C G36U A41U], the self-cleavage worked out at 0.26.

As for GGCAGAGCUCAAGAUAGCGUGGCAAAGUGGAUGUUGCUAGACUGCC [C13G C15U C31A G35U], the self-cleavage stood at 0.04.

Consider GGCAGAGCUCAACACAGCGUGGCAAAGAGCCUGUGGCUAGACCGCC [U28A G30C U43C], for which the self-cleavage was found to be 0.02.

As to AGCAUAGCUCACCACAGCGUGGCAAAGUGGCUGUGGCUAGACUGCC [G1A G5U A12C], the self-cleavage turned out to be 0.04.

GGCAGUGCUGAACACAGCGUGGCAAAGUGGCUGAGGCUAGCCUGCU [A6U C10G U34A A41C C46U]: the self-cleavage amounted to 0.02.

On to GGCUGAGCUCACCACUGCGUGCCAAAAUGGCUGUGGCUAGACUGCC [A4U A12C A16U G22C G27A], for which the self-cleavage worked out at 0.06.

Take GGCUGAGCUAAACACAGCGUGGAAAAGUGGCUGUGGCUAUACUGCC [A4U C10A C23A G40U]: the self-cleavage stood at 0.

Turning to GGCAGAGCUCCACACAGCGUGGUAAAGUGGCUGUGGCGAGACUGCC [A11C C23U U38G], the self-cleavage was 0.

For the variant GGCAGAGCUCAACACAGCGUGGCAAAGUGGCUGUGAUCAGAGUGCC [G36A C37U U38C C42G], the self-cleavage came to 0.01.

Turning to GGCAGAGCUCAACACAGCGUAGCAAAGUGGCUGUGGCUAGAUUUCC [G21A C42U G44U], the self-cleavage came to 0.09.

Turning to GGCUGAGCACAACACAGCGUGGCAAAGGGGCUGUGGCUAGACUGAU [A4U U9A U28G C45A C46U], the self-cleavage was found to be 0.11.

On to GGCAGAUCUAAACACAGCGUGGCAAAGUGGCUGUGGCUUGACUGCC [G7U C10A A39U], for which the self-cleavage is 0.04.

On to GUCAGAGCUCAACACAACGUGGCCAAGUGUCUGUGGCUAGACUGCC [G2U G17A A24C G30U], for which the self-cleavage worked out at 0.01.

GGCAGAGCUGAACACAGCGUUGCAAAGUGGCUGUUGCUAGGCUGCC [C10G G21U G35U A41G]: the self-cleavage amounted to 0.02.

With GGCAGAGCUCAACACAGCGUGGCAAAGUGGCUGUGGCCAGUCGGCC [U38C A41U U43G], the self-cleavage was found to be 0.08.

With GGCAGAGCUCAACAAAGCAUUGCAAAGUGGCUGUGACUAGACUGCC [C15A G19A G21U G36A], the self-cleavage was determined as 0.03.

On to GGCAGAACUCAACACAGCAUUGCAAAGUGGCUGUGGCUAGACUGCC [G7A G19A G21U], for which the self-cleavage turned out to be 0.06.

Regarding UGCAGAGGUCAACACAGCGUGGCAAAGUGGCUGUGGCUAUACUGGC [G1U C8G G40U C45G], the self-cleavage came to 0.1.

In the case of GGCAGGGCUCAACACAGUGUUGCAUAGUGGCUGUGGCUAGACUGCC [A6G C18U G21U A25U], the self-cleavage worked out at 0.19.

As for GGCAGAGCUCAACUCAGCGUGGGGAAGUGGCUGUAGCUAGACUGCC [A14U C23G A24G G35A], the self-cleavage came out at 0.01.

Consider GCCAGAGCUCAACACAACGUGGCAAAGUGGCUGUAGCUAGGCUGCC [G2C G17A G35A A41G], for which the self-cleavage was determined as 0.

As to GGCAGAGCUCAACACAGCGUGGAUUAGUGGGUGUGGCUAGGCUGCC [C23A A24U A25U C31G A41G], the self-cleavage amounted to 0.01.

On to GGCAGAGCUCAACAAUGCGUGGCUAAGUGGUUGUGGCUAGACUGCC [C15A A16U A24U C31U], for which the self-cleavage was 0.03.

For the variant GGCAGAGCUCAACACAGCGUGGUAAAAGGGCCGUGGCUUGACUGCC [C23U G27A U28G U32C A39U], the self-cleavage came to 0.08.
